Laboratory results as given in paper PMC6588450 (Cell chemical biology, 2019).

What was measured:
[1] = test system: kinases in HCT116 cells; assay: KiNativ live cell kinome profiling; type: cell-based, human; conditions: 1 μM, 4 h
[2] = biological target: T1, CDK14 (Homo sapiens, UniProt O94921); assay: NanoBRET live cell target engagement CDK14; type: cell-based
[3] = biological target: T1, CDK14; assay: Competition pull-down with biotin-FMF-03-198-2 in HCT116 cells, CDK14; type: cell-based; conditions: 4 h treatment
[4] = biological target: CDK2 (Homo sapiens, UniProt P24941); assay: Competition pull-down with biotin-FMF-03-198-2 in HCT116 cells, CDK2; type: cell-based; conditions: 4 h treatment; for concentration at which only slight inhibition of CDK2 was observed (pull-down): HCT116 cells
[5] = biological target: CDK10 (Homo sapiens, UniProt Q15131); assay: Competition pull-down with biotin-FMF-03-198-2 in HCT116 cells, CDK10; type: cell-based; conditions: 4 h treatment; for concentration at which engagement of CDK10 was observed (pull-down): HCT116 cells
[6] = biological target: CDK17 (Homo sapiens, UniProt Q00537); assay: Competition pull-down with biotin-FMF-03-198-2 in HCT116 cells, CDK17; type: cell-based; conditions: 4 h treatment
[7] = test system: HCT116 cells; assay: HCT116 antiproliferation assay; type: cell-based, human; conditions: FMF-04-159-R vs FMF-04-159-2
[8] = biological target: CDK16 (Homo sapiens, UniProt Q00536); assay: Competition pull-down with biotin-FMF-03-198-2 in HCT116 cells, CDK16; type: cell-based; conditions: 4 h treatment
[9] = test system: phosphorylated RB S807/811; assay: Immunoblot of phosphorylated RB S807/811 in HCT116 cells; type: cell-based, human; conditions: 1 μM

Sequence of UniProt Q15131 (Q15131 whole entry): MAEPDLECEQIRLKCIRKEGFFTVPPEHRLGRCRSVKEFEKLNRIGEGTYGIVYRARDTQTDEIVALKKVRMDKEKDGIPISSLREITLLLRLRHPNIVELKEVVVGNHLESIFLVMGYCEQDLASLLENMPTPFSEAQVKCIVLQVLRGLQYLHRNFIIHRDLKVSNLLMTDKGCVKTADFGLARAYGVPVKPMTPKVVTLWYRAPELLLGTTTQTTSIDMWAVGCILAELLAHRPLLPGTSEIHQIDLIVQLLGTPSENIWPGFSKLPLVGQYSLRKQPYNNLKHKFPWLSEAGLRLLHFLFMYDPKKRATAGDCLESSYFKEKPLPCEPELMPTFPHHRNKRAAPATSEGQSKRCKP
Sequence of UniProt Q00537 (Q00537 whole entry): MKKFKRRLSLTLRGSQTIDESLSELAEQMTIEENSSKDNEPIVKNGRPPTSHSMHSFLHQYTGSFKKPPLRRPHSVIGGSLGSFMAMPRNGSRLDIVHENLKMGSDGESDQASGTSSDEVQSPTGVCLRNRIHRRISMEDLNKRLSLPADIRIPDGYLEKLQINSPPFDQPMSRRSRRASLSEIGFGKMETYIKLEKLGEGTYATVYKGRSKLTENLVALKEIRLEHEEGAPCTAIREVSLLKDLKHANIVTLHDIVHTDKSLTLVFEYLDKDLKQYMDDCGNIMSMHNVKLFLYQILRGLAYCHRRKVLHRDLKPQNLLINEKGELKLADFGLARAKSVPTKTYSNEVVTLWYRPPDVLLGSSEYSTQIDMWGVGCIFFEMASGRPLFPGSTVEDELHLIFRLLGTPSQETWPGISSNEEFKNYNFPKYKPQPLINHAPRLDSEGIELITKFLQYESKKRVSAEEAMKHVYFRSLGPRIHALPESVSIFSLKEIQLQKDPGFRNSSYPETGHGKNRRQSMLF
Sequence of UniProt Q00536 (Q00536 whole entry): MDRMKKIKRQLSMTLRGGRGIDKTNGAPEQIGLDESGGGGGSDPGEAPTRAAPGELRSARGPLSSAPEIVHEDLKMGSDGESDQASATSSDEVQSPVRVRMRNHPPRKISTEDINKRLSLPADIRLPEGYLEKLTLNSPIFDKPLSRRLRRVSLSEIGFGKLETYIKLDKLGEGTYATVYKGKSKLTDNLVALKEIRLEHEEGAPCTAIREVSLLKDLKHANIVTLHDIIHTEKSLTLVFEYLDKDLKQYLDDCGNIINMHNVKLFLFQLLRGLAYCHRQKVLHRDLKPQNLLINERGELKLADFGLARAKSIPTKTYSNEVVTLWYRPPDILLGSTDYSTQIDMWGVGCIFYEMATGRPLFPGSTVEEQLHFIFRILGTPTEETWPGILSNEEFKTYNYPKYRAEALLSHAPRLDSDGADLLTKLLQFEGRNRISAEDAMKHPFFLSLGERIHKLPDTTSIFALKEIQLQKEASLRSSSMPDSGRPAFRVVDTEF

In the case of `O=C(NC1CCNCC1)c1n[nH]cc1NC(=O)c1c(Cl)cccc1Cl` [AT7519, N-(4-piperidinyl)-4-(2,6-dichlorobenzoylamino)-1 H-pyrazole-3-carboxamide, reference compound], the “kinases inhibited in KiNativ profiling” value [1] is reported as “potently inhibited CDK14”.

`CN(C)CCCC(=O)Nc1cccc(S(=O)(=O)N2CCC(NC(=O)c3n[nH]cc3NC(=O)c3c(Cl)cc(Cl)cc3Cl)CC2)c1` [FMF-04-159-R, N-(1-((3-(4-(dimethylamino)butanamido)phenyl)sulfonyl)piperidin-4-yl)-4-(2,4,6-trichlorobenzamido)-1H-pyrazole-3-carboxamide] was tested, and the “further fold reduction of CDK14 inhibition after washout (NanoBRET)” value ([2]; 2 h washout vs no washout) was 7 fold, the “fold less potent inhibition of CDK14 than FMF-04-159-2 (NanoBRET)” value ([2]; without washout) was 5 fold and the “concentration up to which compound failed to block CDK14 pull-down” value ([3]; HCT116 cells) was greater than 1 µM. The “concentration at which only slight inhibition of CDK2 was observed (pull-down)” value [4] was “above 500 nM” and the “concentration at which engagement of CDK10 was observed (pull-down)” value [5] was “above 750 nM”.

`CN(C)C/C=C/C(=O)Nc1cccc(S(=O)(=O)N2CCC(NC(=O)c3n[nH]cc3NC(=O)c3c(Cl)cc(Cl)cc3Cl)CC2)c1` [FMF-04-159-2, (E)-N-(1-((3-(4-(dimethylamino)but-2-enamido)phenyl)sulfonyl)piperidin-4-yl)-4-(2,4,6-trichlorobenzamido)-1H-pyrazole-3-carboxamide] was tested, and the “kinases inhibited in KiNativ profiling” value [1] was “potently inhibited the TAIRE kinases CDK14, CDK16, CDK17 and CDK18”, the “fold weaker potency for CDK14 at 2 h than at 6 h (NanoBRET)” value ([2]; 2 h timepoint vs 6 h) was roughly 20 fold and the “CDK17 engagement after washout (pull-down)” value ([6]; 1 μM, 2 h after washout) was “no longer inhibited”. The “concentration at which CDK17 was inhibited (pull-down)” value ([6]; HCT116 cells) was “above 750 nM”, the “CDK14 engagement after washout (pull-down)” value ([3]; 1 μM, then washout) was “sustained for up to 2 h after washout” and the “concentration of complete engagement of CDK14 (pull-down)” value ([3]; HCT116 cells) was no less than 500 nM. The “fold difference in HCT116 cell IC50 between the reversible and covalent inhibitor pair” value [7] was 5 fold, the “CDK2 engagement after washout (pull-down)” value ([4]; 1 μM, 2 h after washout) was “no longer inhibited” and the “concentration at which only slight inhibition of CDK2 was observed (pull-down)” value [4] was “above 500 nM”. The “CDK16 engagement after washout (pull-down)” value ([8]; 1 μM, 2 h after washout) was “almost fully removed”, the “concentration at which CDK16 was inhibited (pull-down)” value ([8]; HCT116 cells) was “above 750 nM” and the “CDK10 engagement after washout (pull-down)” value ([5]; 1 μM, 2 h after washout) was “no longer inhibited”. For the same compound, the “concentration at which engagement of CDK10 was observed (pull-down)” value [5] was “above 750 nM” and the “levels of phosphorylated RB S807/811” value [9] was “did not observe major reductions”.

With `CN(C)C/C=C/C(=O)Nc1cccc(S(=O)(=O)N2CCC(NC(=O)c3n[nH]cc3NC(=O)c3c(Cl)cccc3Cl)CC2)c1` [FMF-03-198-2, (E)-4-(2,6-dichlorobenzamido)-N-(1-((3-(4-(dimethylamino)but-2-enamido)phenyl)sulfonyl)piperidin-4-yl)-1H-pyrazole-3-carboxamide] the “kinases inhibited in KiNativ profiling” value [1] was “pan-CDK kinase inhibitor”.
